Paper PMC4336329 (PLoS ONE, 2015)
Hit rate of the full screen: of about 310,000 compounds, about 14,000 (4.5%) showed an effect of 50% or more. The effect is printed as a negative number. The list shows a part of the results. Where a SMILES comes first, the peptide text is derived from it. The star is where a group is joined. Cbz = O=C(OCc1ccccc1)*; Boc = CC(C)(C)OC(=O)*

target: human ether-à-go-go-related gene (hERG) potassium channel (human, UniProt Q12809); assay: primary screen, population patch clamp on CHO cells stably expressing hERG
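Further: peak tail current of the secondary pulse compared with the same well before compound.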

Chain of human ether-à-go-go-related gene (hERG) potassium channel (Q12809 whole entry, looked up): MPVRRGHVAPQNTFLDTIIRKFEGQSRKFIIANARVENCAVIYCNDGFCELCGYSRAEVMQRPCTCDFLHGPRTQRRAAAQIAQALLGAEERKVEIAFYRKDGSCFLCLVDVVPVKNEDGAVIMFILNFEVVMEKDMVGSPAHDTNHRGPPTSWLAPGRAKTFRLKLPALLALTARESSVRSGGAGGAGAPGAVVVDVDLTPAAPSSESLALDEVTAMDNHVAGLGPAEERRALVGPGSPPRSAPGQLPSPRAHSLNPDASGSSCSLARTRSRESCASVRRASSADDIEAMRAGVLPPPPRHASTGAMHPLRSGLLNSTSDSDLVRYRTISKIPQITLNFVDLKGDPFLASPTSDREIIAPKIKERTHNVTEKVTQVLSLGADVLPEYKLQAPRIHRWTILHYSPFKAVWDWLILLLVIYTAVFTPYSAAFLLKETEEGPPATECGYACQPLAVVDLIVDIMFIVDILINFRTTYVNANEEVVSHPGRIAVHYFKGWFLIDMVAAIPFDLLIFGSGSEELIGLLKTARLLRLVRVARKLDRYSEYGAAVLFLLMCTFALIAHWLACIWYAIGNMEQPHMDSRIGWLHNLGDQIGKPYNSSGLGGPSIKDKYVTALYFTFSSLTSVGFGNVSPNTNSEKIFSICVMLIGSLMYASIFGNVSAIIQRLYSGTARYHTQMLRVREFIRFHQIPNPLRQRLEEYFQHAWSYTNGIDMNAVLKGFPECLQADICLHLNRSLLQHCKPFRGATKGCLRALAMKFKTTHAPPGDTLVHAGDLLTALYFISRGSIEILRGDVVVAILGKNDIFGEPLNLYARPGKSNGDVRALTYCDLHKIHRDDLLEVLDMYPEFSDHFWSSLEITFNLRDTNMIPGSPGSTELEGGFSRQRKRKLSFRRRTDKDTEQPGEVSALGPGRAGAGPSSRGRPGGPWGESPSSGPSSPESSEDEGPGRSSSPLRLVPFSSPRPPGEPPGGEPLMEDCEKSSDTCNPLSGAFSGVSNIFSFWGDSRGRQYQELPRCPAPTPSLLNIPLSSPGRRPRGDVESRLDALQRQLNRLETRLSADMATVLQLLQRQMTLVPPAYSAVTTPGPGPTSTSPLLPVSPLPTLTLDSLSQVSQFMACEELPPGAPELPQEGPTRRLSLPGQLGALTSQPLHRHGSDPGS

| SMILES | hERG current change (%, negative = inhibition) at 10uM |
| --- | --- |
| CCC(=O)N1CCc2cc(S(=O)(=O)NCCC(=O)Nc3ccc(OC)cc3)ccc21 | -26% |
| Cn1c(C(=O)Nc2ccc3c(c2)OCO3)cc2c(=O)n(C)c3ccccc3c21 | 1.76% |
| O=C(OCCCCOC(=O)c1ccccc1)c1ccccc1 | 9.2% |
| O=S(=O)(c1ccc(F)cc1)N1CCN(C(=S)NC2CCCC2)CC1 | -11.7% |
| O=C(COC(=O)C1CC2CCCC(C1)C2=O)NC1CCCCC1 (stereo not drawn) | 11.8% |
| CC1=C(c2ccc(C)cc2)S(=O)(=O)N(CC(=O)O)C1=O | -6.72% |
| C=CCSC1=N/C(=C\c2cc(OC)c3c(c2)OCO3)C(=O)S1 | 6.54% |
| CCCNC(=O)COC(=O)c1ccccc1C(=O)c1ccc(Cl)c([N+](=O)[O-])c1 | 9.9% |
| N#Cc1ccc(NC(=O)COC(=O)c2ccc(F)c(S(=O)(=O)N3CCOCC3)c2)cc1 | -10.8% |
| O=C(Nc1ccncc1)Nc1cccc(C(F)(F)F)c1 | -10.2% |
| COc1ccccc1OCC(=O)NCC1CCCN(Cc2cnn(C)c2C)C1 (stereo not drawn) | 8.9% |
| CSCCC(NC(=O)c1ccccc1Cl)C(=O)OCC(=O)N1CCCC1=O (stereo not drawn) | 10.9% |
| CN(c1cccc(NC(=O)c2cccc([N+](=O)[O-])c2)c1)S(C)(=O)=O | 13.1% |
| Cc1cccc2cc(C3CC(c4ccco4)=NN3S(=O)(=O)c3ccccc3)c(Cl)nc12 (stereo not drawn) | -1.79% |
| N/N=C(\c1ccccc1)c1cc(Cl)ccc1N | 8.63% |
| COc1ccc(C(CNC(=O)c2ccc(OCc3c(C)noc3C)cc2)N2CCCC2)cc1 (stereo not drawn) | -28.1% |
| CC(C)CC(C(=O)O)C(C)CC(=O)Nc1ccn(-c2ccccc2)n1 (stereo not drawn) | -13.2% |
| Nc1nc(-c2cc3ccccc3o2)cs1 | 3.34% |
| CCC1=NN(C(=O)C(=O)Nc2ccc(OC)cc2)C(O)(C(F)(F)F)C1 (stereo not drawn) | -2.93% |
| COC(=O)[C@@H](CC(C)C)NS(=O)(=O)N(Cc1ccccc1)[C@@H](CC(C)C)C(=O)OC | -1.9% |
| COc1ccc2cc(C3(C)NC(=O)N(CC(=O)NCCC4=CCCCC4)C3=O)ccc2c1 (stereo not drawn) | -1.72% |
| CCCNC(=O)c1ccc(N2CCC3(CC2)CC(c2ccccc2)=NO3)c(NC(=O)c2ccco2)c1 | -45.9% |
| O=C(COC(=O)c1ccccc1Nc1ccccc1)NCc1ccco1 | 7.39% |

| SMILES | hERG current change (%, negative = inhibition) at 10uM |
| --- | --- |
| COc1ccccc1NS(=O)(=O)c1cc(NC(=O)Nc2ccc(Cl)cc2Cl)ccc1N1CCCCC1 | 7.08% |
| CC(C)CCNC(=O)CSc1nc2ccccc2c(=O)[nH]1 | 6.71% |
| COC(=O)CNc1nc(OC)nc(N(C)C)n1 | 10.6% |
| S=c1[nH]nc(-c2ccco2)n1-c1ccc(Br)cc1 | 17.5% |
| O=[N+]([O-])C1=C(Nc2cccc3ccccc23)CS(=O)(=O)C1 | -11.2% |
| Cc1ccc2c(c1)cc1c(=O)n(CC(=O)N3CCC4(CC3)OCCO4)nc(C)n12 | -5.63% |
| CC1(NC(=O)c2ccccc2)CCN(CCc2cccs2)C1=O (stereo not drawn) | 9.3% |
| O=C(CNC(=O)c1ccc(Cl)cc1)OCCN1C(=O)c2ccccc2C1=O | -14.7% |
| CC(=O)O.COc1ccc(N2C(=O)C(CC(N)=O)N(NC(=O)CCc3ccccc3)C2=O)cc1 (stereo not drawn) | 2.77% |
| O=C1NCCn2nc3ccccc3c21 | 6.94% |
| O=C(Nc1cccnc1)c1ccc([N+](=O)[O-])o1 | 16.3% |
| CCn1c(SCC(=O)Nc2cc(C)on2)nnc1-c1ccccc1 | -3.05% |
| CCCCCCCCC(=O)N/N=C(\C)c1ccc(O)cc1O | -9.45% |
| CCN1C(C)=C(C)S/C1=C1\SC(=S)N(N)C1=O | 9.05% |
| Cc1cnc(C(=O)Nc2ccc(F)cc2)cn1 | -0.2% |
| CCOc1cc(N2CCOCC2)c(OCC)cc1NC(=O)COc1cccc(Cl)c1 | -8.11% |
| CCCN(CC(=O)Nc1ccccc1C)C(=O)c1sc2ccccc2c1Cl | -5.03% |
| O=C(COc1ccccc1Cl)NCCC1=CCCCC1 | -0.394% |
| O=C(CCCOc1ccc(Cl)cc1Cl)N/N=C/c1ccc(Cl)cc1 | 7.5% |
| O=S1(=O)c2ccccc2C(CCO)N1Cc1ccccc1 (stereo not drawn) | 7.94% |
| C=CCNC(=S)Nc1sc2c(c1C(=O)OCC)CC(C)(CC)OC2 (stereo not drawn) | 28.6% |
| CCCn1c(CN2CCCCC2CC)nc2c1c(=O)n(C)c(=O)n2C (stereo not drawn) | -5.14% |
| CC(C[N+](C)(C)C)OC(N)=O.[Cl-] (stereo not drawn) | 11.5% |

| SMILES | hERG current change (%, negative = inhibition) at 10uM |
| --- | --- |
| CCN(CC)CCN1C(=O)C(=O)/C(=C(/O)c2ccc(C)cc2)C1c1cccnc1 (stereo not drawn) | 1.23% |
| CC(=O)c1ccc(OCCCC(=O)Nc2ccc3c(c2)OCCO3)cc1 | 9.3% |
| CCOc1ccc(NC(=O)CSc2nnc(C)n2CC2CCCO2)cc1 (stereo not drawn) | 16% |
| CCC(=O)N1CCN(c2ccccc2NC(=O)COc2cccc(C)c2C)CC1 | -18% |
| CC1CCCN(S(=O)(=O)c2ccc3c(c2)c(=O)nc2ccccn23)C1 (stereo not drawn) | 16.4% |
| CC1CN(C(=O)CCC(=O)NCc2ccc(Cl)cc2)c2ccccc2O1 (stereo not drawn) | -53.6% |
| CC1(C)CC(=O)c2cnc(N3CCc4ccccc43)nc2C1 | 4.43% |
| O=C(NCc1ccco1)c1n[nH]c(=O)c2ccccc12 | 8.18% |
| CCOc1ccc(S(=O)(=O)Nc2cccc(C(=O)NCCCn3ccnc3)c2)cc1 | 10.5% |
| Cc1nc(CCNC(=O)Cc2ccc(F)cc2)cs1 | 18.9% |
| CC(=O)Oc1ccc(C(=O)Nc2ccccc2C(=O)N2CCCC2)cc1 | 17.2% |
| CCCOc1ccccc1-c1nc2c([nH]1)c(=O)[nH]c(=O)n2C | 8.5% |
| CC1CCC(NS(=O)(=O)c2ccc(N3CCCC3=O)cc2)CC1 (stereo not drawn) | 1.51% |
| COC(=O)C1=C(C)NC(=O)NC1c1ccsc1 (stereo not drawn) | 0.678% |
| Cn1c(N)c(C(=O)COc2ccc(Cl)cc2Cl)c(=O)n(C)c1=O | 2.07% |
| CC1CCN(C(=O)c2cc3ccccc3c(=O)o2)CC1 | 5.74% |
| CCCC(=O)OCC(=O)Nc1cc(Cl)ccc1[N+](=O)[O-] | 16.8% |
| CCOC(=O)c1cc(C(=O)NN)c(C)nc1C | 14.2% |
| COc1ccc(CC(=O)Nc2ccc(S(=O)(=O)Nc3nccc(C)n3)cc2)cc1 | -8.29% |
| Cc1ccc(N(CC(=O)NCc2ccccc2)C(=O)CCC(=O)Nc2ccccn2)cc1 | -1.93% |
| CC(C)(C)OC(=O)NCCCC[C@H](NC(=O)[C@H](Cc1c[nH]c2ccccc12)NC(=O)OCc1ccccc1)C(=O)O (Cbz-Trp-Lys(Boc)-OH) | 15.8% |
| COC(=O)c1cc(C(=O)OC)cc(N2C(=O)CC(NNC(=O)c3ccccc3Br)C2=O)c1 (stereo not drawn) | 4.89% |
| CCN(CC)c1ncnc2c1cnn2C | 7.53% |

| SMILES | hERG current change (%, negative = inhibition) at 10uM |
| --- | --- |
| CC(=O)Nc1ccc(S(=O)(=O)Nc2nc(C)nc3sc4c(c23)CCC4)cc1 | 5.89% |
| COc1ccccc1OCCSc1nnnn1-c1ccc(C)cc1 | -7.83% |
| Cc1coc(C)c1C(=O)CC1(O)C(=O)Nc2cc(Cl)cc(Cl)c21 (stereo not drawn) | 0.843% |
| CC(C)(C)n1ncc2c(=O)n(CC(=O)N3CCCc4ccccc43)cnc21 | 7.97% |
| COc1ccc(C2C(C(=O)/C=C/c3ccco3)=C(O)C(=O)N2CCN2CCOCC2)cc1 (stereo not drawn) | 13.3% |
| O=C(CSc1nnnn1-c1cccc2ccccc12)N1CCOCC1 | -25% |
| CCOc1ccc(/C=N/NC(=O)c2ccccc2Cl)cc1CN1CC2CC(C1)c1cccc(=O)n1C2 (stereo not drawn) | -18.1% |
| CC(=O)c1cc(-c2nc3ccccc3n2C)n(C)c1 | 4.26% |
| CCCCCCCCN1[C@@H](CC(=O)O)c2ccc(C(F)(F)F)cc2S1(=O)=O | -3.38% |
| O=C(NC(=S)NC1CCSC1=O)c1cccs1 (stereo not drawn) | 15.9% |
| COc1ccc([N+](=O)[O-])cc1NC(=O)c1ccccc1N(C)S(C)(=O)=O | 2.75% |
| N#C/C(=C(/O)CN1CCCC1)c1nc(-c2ccccc2)cs1 | 1.97% |
| COc1ccc([C@H]2CC(=O)c3c(O)cc(O)cc3O2)cc1O | 4.3% |
| CC(C)Sc1nc2ncnc(N)c2[nH]1 | 18.6% |
| CCn1c(Cc2ccccc2)nnc1SCC(=O)Nc1ccc(N)cc1 | 0.74% |
| CCOC(=O)c1ccccc1NC(=O)c1ccc2c(=O)n3c(nc2c1)CCCCC3 | -41.3% |
| Cc1ccc(Cn2ccc(NC(=O)c3noc4c3CCCCC4)n2)cc1 | 5.65% |
| COC(=O)C1=C(c2cc3ccccc3o2)C[C@@H]2CC[C@H]1N2C(=O)NCCNC(C)=O | 10.3% |
| O=Cc1c[nH]c2ccc(OCc3ccccc3)cc12 | 9.68% |
| COc1ccc(Cl)cc1N1CC(c2nc3ccccc3[nH]2)CC1=O (stereo not drawn) | -33.9% |
| Cc1ccc(C(=O)COC(=O)c2ccc(Cl)c(N)c2)s1 | -2.05% |
